Assay [1] addresses T1, Med7-FLAG (Drosophila melanogaster) (UniProt Q9GYV9).
T1 sequence: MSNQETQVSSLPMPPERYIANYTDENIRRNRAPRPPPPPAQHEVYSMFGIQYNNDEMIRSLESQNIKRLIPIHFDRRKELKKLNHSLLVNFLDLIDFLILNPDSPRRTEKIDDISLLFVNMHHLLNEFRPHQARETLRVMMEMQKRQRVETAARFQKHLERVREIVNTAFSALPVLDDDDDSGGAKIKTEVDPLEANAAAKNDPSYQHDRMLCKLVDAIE
The assay can be described thus: native gel or EMSA; two-dimensional BN-PAGE (native 4-10% gradient gel at 4°C, then SDS-PAGE) of the nuclear fraction of S2R+ cells co-expressing Med15-FLAG and Med7-FLAG; western blot with anti-FLAG and anti-Moe.

By UniProt entry, the sequences of proteins in these tests, tags left out.
UniProt P46150: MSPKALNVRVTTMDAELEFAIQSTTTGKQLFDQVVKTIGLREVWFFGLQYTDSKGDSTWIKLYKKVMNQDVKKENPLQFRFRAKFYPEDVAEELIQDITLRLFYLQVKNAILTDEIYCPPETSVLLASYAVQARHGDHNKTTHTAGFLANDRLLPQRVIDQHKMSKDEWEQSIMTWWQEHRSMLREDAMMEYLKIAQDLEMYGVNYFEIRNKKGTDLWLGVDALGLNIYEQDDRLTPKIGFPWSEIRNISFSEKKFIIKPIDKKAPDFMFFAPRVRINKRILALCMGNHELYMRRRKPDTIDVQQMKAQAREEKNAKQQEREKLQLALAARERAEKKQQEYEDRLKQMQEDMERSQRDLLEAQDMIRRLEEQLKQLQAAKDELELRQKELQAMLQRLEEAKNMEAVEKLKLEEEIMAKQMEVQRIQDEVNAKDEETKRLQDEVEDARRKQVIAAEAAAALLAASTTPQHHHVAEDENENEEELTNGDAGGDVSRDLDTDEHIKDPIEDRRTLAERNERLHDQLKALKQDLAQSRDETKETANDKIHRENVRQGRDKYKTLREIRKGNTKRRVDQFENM

For assay [2], the target named is T2, Med15-FLAG (Drosophila melanogaster) (UniProt Q9Y149).
T2 sequence: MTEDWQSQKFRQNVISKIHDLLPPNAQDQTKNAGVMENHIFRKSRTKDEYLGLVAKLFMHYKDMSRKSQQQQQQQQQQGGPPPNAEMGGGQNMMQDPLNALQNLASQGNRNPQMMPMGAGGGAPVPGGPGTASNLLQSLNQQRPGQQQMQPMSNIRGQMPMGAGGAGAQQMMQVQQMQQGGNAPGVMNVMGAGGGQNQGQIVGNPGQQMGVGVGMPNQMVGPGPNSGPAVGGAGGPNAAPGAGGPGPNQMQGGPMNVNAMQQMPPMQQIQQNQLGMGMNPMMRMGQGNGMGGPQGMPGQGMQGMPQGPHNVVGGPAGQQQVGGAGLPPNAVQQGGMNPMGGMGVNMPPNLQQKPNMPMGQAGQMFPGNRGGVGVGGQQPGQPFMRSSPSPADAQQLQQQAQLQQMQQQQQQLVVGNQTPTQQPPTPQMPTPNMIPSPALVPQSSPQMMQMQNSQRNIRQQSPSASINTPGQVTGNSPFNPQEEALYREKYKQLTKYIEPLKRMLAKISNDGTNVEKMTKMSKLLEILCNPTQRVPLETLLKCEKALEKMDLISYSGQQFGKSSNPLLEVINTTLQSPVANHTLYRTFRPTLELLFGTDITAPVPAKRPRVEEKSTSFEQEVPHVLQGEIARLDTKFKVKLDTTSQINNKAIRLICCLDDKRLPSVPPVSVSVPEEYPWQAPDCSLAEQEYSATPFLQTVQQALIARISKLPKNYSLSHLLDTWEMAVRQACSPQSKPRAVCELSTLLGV
The assay is described as above.

Assay [3] has as its target T3, Hsf-NYFP (Drosophila melanogaster) (UniProt P22813).
T3 sequence: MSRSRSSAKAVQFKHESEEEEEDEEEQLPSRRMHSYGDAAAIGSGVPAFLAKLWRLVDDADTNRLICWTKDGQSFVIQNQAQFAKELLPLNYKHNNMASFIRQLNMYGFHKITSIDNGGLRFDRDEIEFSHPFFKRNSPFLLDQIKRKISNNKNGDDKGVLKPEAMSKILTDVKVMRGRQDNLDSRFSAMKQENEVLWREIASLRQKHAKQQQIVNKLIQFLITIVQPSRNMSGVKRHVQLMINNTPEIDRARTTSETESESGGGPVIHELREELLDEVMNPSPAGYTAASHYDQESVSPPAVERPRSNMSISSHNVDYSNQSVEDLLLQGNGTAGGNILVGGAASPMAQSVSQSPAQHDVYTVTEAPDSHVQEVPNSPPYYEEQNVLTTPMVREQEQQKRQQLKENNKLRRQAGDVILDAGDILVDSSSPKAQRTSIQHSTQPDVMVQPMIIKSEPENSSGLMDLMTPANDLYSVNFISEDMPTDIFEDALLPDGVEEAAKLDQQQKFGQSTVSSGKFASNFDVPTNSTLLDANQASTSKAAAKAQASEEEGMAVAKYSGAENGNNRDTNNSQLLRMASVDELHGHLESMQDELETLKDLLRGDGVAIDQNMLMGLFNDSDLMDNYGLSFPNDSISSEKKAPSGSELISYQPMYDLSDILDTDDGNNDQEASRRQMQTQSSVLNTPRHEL
The assay can be described thus: split reporter; split YFP (BiFC) in living, unstressed S2R+ cells, 2 days after transfection; confocal microscopy, percent of YFP positive cells.

The target in assay [4] is Moesin-NYFP (Drosophila melanogaster) (UniProt P46150). The assay is described as above.
Assay [5] has as its target Moe-NYFP (transgenic flies) (Drosophila melanogaster) (UniProt P46150). The assay can be described thus: split reporter; split YFP in larval salivary glands (Sgs3 Gal4 driver) or adult ovaries of transgenic Drosophila; live imaging.

Results are given in words; binding and its absence hold for the method and conditions named. For some assays here: In cells and extracts the contact can be indirect. Some binding calls cover weakened binding; strength is not graded here. Sequences can lack the tags named with a protein.

Turning to “endogenous Moesin (from UniProt P46150 1-578)”, the binding entry in assay [1] and in assay [2] was “binds” each time.

B1: Med15-CYFP (protein, UniProt Q9Y149 1-749)
chain: MTEDWQSQKFRQNVISKIHDLLPPNAQDQTKNAGVMENHIFRKSRTKDEYLGLVAKLFMHYKDMSRKSQQQQQQQQQQGGPPPNAEMGGGQNMMQDPLNALQNLASQGNRNPQMMPMGAGGGAPVPGGPGTASNLLQSLNQQRPGQQQMQPMSNIRGQMPMGAGGAGAQQMMQVQQMQQGGNAPGVMNVMGAGGGQNQGQIVGNPGQQMGVGVGMPNQMVGPGPNSGPAVGGAGGPNAAPGAGGPGPNQMQGGPMNVNAMQQMPPMQQIQQNQLGMGMNPMMRMGQGNGMGGPQGMPGQGMQGMPQGPHNVVGGPAGQQQVGGAGLPPNAVQQGGMNPMGGMGVNMPPNLQQKPNMPMGQAGQMFPGNRGGVGVGGQQPGQPFMRSSPSPADAQQLQQQAQLQQMQQQQQQLVVGNQTPTQQPPTPQMPTPNMIPSPALVPQSSPQMMQMQNSQRNIRQQSPSASINTPGQVTGNSPFNPQEEALYREKYKQLTKYIEPLKRMLAKISNDGTNVEKMTKMSKLLEILCNPTQRVPLETLLKCEKALEKMDLISYSGQQFGKSSNPLLEVINTTLQSPVANHTLYRTFRPTLELLFGTDITAPVPAKRPRVEEKSTSFEQEVPHVLQGEIARLDTKFKVKLDTTSQINNKAIRLICCLDDKRLPSVPPVSVSVPEEYPWQAPDCSLAEQEYSATPFLQTVQQALIARISKLPKNYSLSHLLDTWEMAVRQACSPQSKPRAVCELSTLLGV
For B1, the binding result in assay [3] and in assay [4] was “binds” each time.

B2: Med15-CYFP (transgenic flies) (protein, UniProt Q9Y149 1-749)
chain: MTEDWQSQKFRQNVISKIHDLLPPNAQDQTKNAGVMENHIFRKSRTKDEYLGLVAKLFMHYKDMSRKSQQQQQQQQQQGGPPPNAEMGGGQNMMQDPLNALQNLASQGNRNPQMMPMGAGGGAPVPGGPGTASNLLQSLNQQRPGQQQMQPMSNIRGQMPMGAGGAGAQQMMQVQQMQQGGNAPGVMNVMGAGGGQNQGQIVGNPGQQMGVGVGMPNQMVGPGPNSGPAVGGAGGPNAAPGAGGPGPNQMQGGPMNVNAMQQMPPMQQIQQNQLGMGMNPMMRMGQGNGMGGPQGMPGQGMQGMPQGPHNVVGGPAGQQQVGGAGLPPNAVQQGGMNPMGGMGVNMPPNLQQKPNMPMGQAGQMFPGNRGGVGVGGQQPGQPFMRSSPSPADAQQLQQQAQLQQMQQQQQQLVVGNQTPTQQPPTPQMPTPNMIPSPALVPQSSPQMMQMQNSQRNIRQQSPSASINTPGQVTGNSPFNPQEEALYREKYKQLTKYIEPLKRMLAKISNDGTNVEKMTKMSKLLEILCNPTQRVPLETLLKCEKALEKMDLISYSGQQFGKSSNPLLEVINTTLQSPVANHTLYRTFRPTLELLFGTDITAPVPAKRPRVEEKSTSFEQEVPHVLQGEIARLDTKFKVKLDTTSQINNKAIRLICCLDDKRLPSVPPVSVSVPEEYPWQAPDCSLAEQEYSATPFLQTVQQALIARISKLPKNYSLSHLLDTWEMAVRQACSPQSKPRAVCELSTLLGV
B2: in assay [5], the binding entry was “binds”.

The values are drawn from paper PMC11444770, “Moesin contributes to heat shock gene response through direct binding to the Med15 subunit of the Mediator complex in the nucleus” (Open Biology, 2024).
